# Data from PubChem BioAssay AID652104 (National Center for Advancing Translational Sciences (NCATS), 2013).
# Out of some 410,000 compounds screened, about 7,200 (1.8%) were called active. The shares of active, inactive and inconclusive entries below differ from those in the screen. The call rests on the fitted dose curve; in most records, active means well fitted activation curve with a large enough effect; inconclusive means small, poorly fitted or top-dose-only effect, or another doubt; inactive means no such curve, though single readings can be large or run the other way. No potency is given beside an inconclusive call; the fits are too rough. Some compounds were tested as several samples or in several runs, with calls that do not always agree.
# Experiment: qHTS of TDP-43 Inhibitors; further: nearly all actives have a fitted effect of over 50% in size; on growth rescue (activation): % of control where 0% means no effect
# Details: TDP-43 expressing yeast growth rescue, BacTiter-Glo, 24 h; growth rescue (activation): at 46.1 µM (top of the series) unless noted
# How it was run: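 Galactose-induced TDP-43 yeast, OD600=0.02, compound pinned; 24 hr, 30 deg C; BacTiter-Glo luminescence for growth. Inhibitors of TDP-43 toxicity read as activators.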
# Potency means the concentration at half of the fitted maximal effect; tags describe the fitted curve by direction and shape.
Compound,Potency,growth rescue (activation)
Cc1c(C(=O)Nc2cccc([N+](=O)[O-])c2)cnn1-c1ccccc1,"inconclusive [activator, partial curve]",–
Cc1cc(/C=N/NC(N)=S)c(C)n1-c1ccc(Cl)c(Cl)c1,active: 17.8 µM,–
Cn1c(CCNC(=O)c2ccco2)nc2cc(NC(=O)COc3ccc(Cl)cc3)ccc21,inactive,–
Fc1ccc2nncc(SCc3ccccc3Cl)c2c1,"inconclusive [activator, single point]",–
CC(C)(C)C1C/C(=C/c2ccccn2)C(=O)/C(=C/c2ccccn2)C1 (stereo not drawn),"inconclusive [activator, full curve, poor fit]",–
CCC/C=C/c1ccc(CN2C(CC(C)C)C(=O)N(Cc3cn(Cc4ccco4)nn3)CCS2(=O)=O)cc1 (stereo not drawn),inactive,–
O=C(Nc1c2c(nn1-c1ccc(F)cc1)CS(=O)C2)C12CC3CC(CC(C3)C1)C2 (stereo not drawn),inactive,–
CC(C)N(C(=O)[C@H]1C[C@H](CC(=O)NCc2cccc(C(F)(F)F)c2)C(=O)N2CCc3c([nH]c4ccc(Cl)cc34)[C@]12C)C(C)C,active: 35.5 µM,–
COc1ccc2c(C)c(CCC(=O)NCCc3ccc(Cl)cc3)c(=O)oc2c1,active: 22.4 µM,–
c1ccc(-c2noc(CN3CCN(c4ccccc4)CC3)n2)cc1,"inconclusive [activator, partial curve]",–
COc1cccc(NC(=O)/C(C#N)=C\c2cn(Cc3ccc(Cl)cc3)c3ccccc23)c1,inactive,–
CCCSc1nc(N2CCOCC2)c2c(c1C#N)CCCC2,"inconclusive [activator, single point]",–
CCc1ccc(-c2nn(CC(=O)NC3CCCCC3)c3c2cnc2ccc(OC)cc23)cc1,"inconclusive [activator, partial curve]",–
Cc1ccc(Cl)cc1NC(=O)COc1ccccc1,"inconclusive [activator, partial curve]",–
COc1cccc(-c2cc3nc(C)cc(N4CCN(C(=O)c5ccoc5)CC4)n3n2)c1,inactive,–
COc1ccc(Cl)cc1NC(=S)Nc1cccc(C)c1,"inconclusive [activator, single point]",–
CNC(=O)c1c(NC(=O)c2cccc(C)c2)sc2c1CCC2,active: 14.1 µM,–
CC1CCCCN1S(=O)(=O)c1ccc2c(c1)oc(=O)n2CC(=O)Nc1ccc(Cl)cc1 (stereo not drawn),–,inactive: 7.56% [at 9.22 µM]
Cc1ccc(CS(=O)(=O)Cc2ccc(C(=O)NC3CCCC3)o2)cc1,inactive,–
Cc1cccc(CNC(=O)c2ccc(Cn3c(=O)c4cccn4c4cccnc43)cc2)c1,inactive,–
O=C(CC1N=C2c3ccccc3N=C(SCc3ccccc3F)N2C1=O)NCc1cccs1 (stereo not drawn),inactive,–
Cc1cc(C)c(NC(=O)C2CC(=O)N(Cc3ccccc3)C2)c(C)c1 (stereo not drawn),"inconclusive [activator, full curve, poor fit]",–
COc1ccc(C)cc1-n1nnnc1SCc1csc(C)n1,"inconclusive [activator, single point]",–
Cc1ccc(C(=O)NNC(=O)C2CC2)cc1Br,inactive,–
Brc1c(CSc2nc3ccccc3s2)nc2ncccn12,"inconclusive [activator, single point]",–

Compound,Potency,growth rescue (activation)
Cc1cc(C)c(S(=O)(=O)NC2CC2)c(C)c1,"inconclusive [activator, single point]",–
CCn1c(=O)n(CC)c2cc(N3CCCCC3)c(NC(=O)Nc3cc(Cl)ccc3OC)cc21,"inconclusive [activator, partial curve, poor fit]",–
Fc1ccc(CSc2nnc(-c3cccnc3)o2)cc1,"inconclusive [activator, single point]",–
CCOC(=O)c1c(C)[nH]c(CCC(=O)Nc2ccccc2C(=O)OC)c1C,"inconclusive [activator, partial curve, poor fit]",–
C=CCNC(=O)c1cccc(Br)c1,"inconclusive [activator, single point]",–
Cc1nnc(SCC(=O)N2c3ccccc3C(C)(c3ccc(Cl)cc3)CC2(C)C)s1 (stereo not drawn),"inconclusive [activator, single point]",–
Cc1ccc(NC(=O)c2cc(S(=O)(=O)NCCC3=CCCCC3)ccc2F)cc1,active: 22.4 µM,–
O=C1CCN(Cc2ccccc2)S(=O)(=O)c2ccc(C(F)(F)F)cc21,"inconclusive [activator, partial curve]",–
Cc1nc2ccc(NC(=O)C3CCN(S(=O)(=O)c4cccs4)CC3)cc2s1,"inconclusive [activator, single point]",–
Cc1cccc(C(=O)Nc2ccccc2C(=O)NCc2ccco2)c1,"inconclusive [activator, single point]",–
COc1ccc(S(=O)(=O)N2CCN(C(=O)c3cc4c(s3)CCC4)CC2)cc1,"inconclusive [activator, partial curve]",–
O=C(c1cccs1)N1CCCc2cc(NS(=O)(=O)c3ccc(F)cc3)ccc21,–,inactive: 14.5% [at 9.22 µM]
CC(C)Cn1c(/C=C/c2ccc(F)cc2)nc2ccccc21,active: 14.1 µM,–
COCCCNC(=O)CCc1c(C)nc2cc(-c3ccc(Cl)cc3)nn2c1C,"inconclusive [activator, single point]",–
O=C(c1ccc(CS(=O)c2cccc(Cl)c2)o1)N1CCN(C2CCCCC2)CC1 (stereo not drawn),inactive,–
CCOC(=O)/C(C)=C1\NC(C)(C)Cc2ccccc21,inactive,–
CCOc1cc(N2CCOCC2)c(OCC)cc1NC(=O)CSc1ncccc1C(=O)O,inactive,–
Cc1ccc(OCCCC(=O)Nc2ccc(N3CCOCC3)cc2)c(C)c1,"inconclusive [activator, full curve]",–
CCCCCN1C(C(=O)c2ccccc2)=C(NC(=O)c2ccccc2Cl)c2ccccc2S1(=O)=O,inactive,–
CC(=O)Nc1ccc(Oc2ccc(-c3noc(C)n3)cc2)cc1,inactive,–
Cc1ccc2c(CC(=O)N3CCN(c4ccccc4)CC3)coc2c1,"inconclusive [activator, partial curve]",–
N#Cc1cn(-c2ccccc2)nc1-c1ccc2c(c1)OCCO2,inactive,–
N#CC1=C2CCCCC2(O)NC1=O (stereo not drawn),inactive,–
COc1ccc2[nH]c(=O)c(CN(C(C)=O)c3cccc(C)c3)cc2c1,inactive,–
COc1cccc(C(O)c2nc(-c3ccc(F)c(Cl)c3)cs2)c1 (stereo not drawn),"inconclusive [activator, single point]",–

Compound,Potency,growth rescue (activation)
Cc1cc(C)cc(-n2ccnc2SCC(=O)Nc2nccs2)c1,"inconclusive [activator, partial curve]",–
O=C(CCn1c(=O)c2cccn2c2cccnc21)N1CCN(c2cccc(Cl)c2)CC1,active: 20 µM,–
Cc1cccc(-c2nc(SCC(=O)Nc3ccc4c(c3)OCO4)c(-c3ccccc3)[nH]2)c1,"inconclusive [activator, single point]",–
Cc1nc(Nc2ccc3c(c2)OCO3)c2oc3ccccc3c2n1,"inconclusive [activator, partial curve]",–
CN1C(=O)Cc2cc(S(=O)(=O)NCCc3ccccc3)ccc21,"inconclusive [activator, full curve]",–
Cc1ccccc1CSc1nnc(-c2ccncc2)o1,active: 14.1 µM,–
COc1ccccc1CNC(=O)c1oc2ccccc2c1C,"inconclusive [activator, partial curve]",–
O=C(Nc1ccccc1Cl)c1cc(=O)c2ccccc2o1,"inconclusive [activator, partial curve]",–
CCOc1cc(/C=N/NS(=O)(=O)c2ccccc2)ccc1OS(=O)(=O)c1ccc(C)cc1,inactive,–
COc1cccc(NC(=O)COC(=O)C2CCCCC2)c1,"inconclusive [activator, partial curve]",–
Cc1ccc(-c2nc3cc(Br)cnc3nc2-c2ccc(C)cc2)cc1,"inconclusive [activator, single point]",–
Cc1cccc(NC(=O)CCn2nc(-c3ccccc3)c3ccccc3c2=O)c1,active: 20 µM,–
O=C(Nc1ccccn1)c1cccc(S(=O)(=O)N2CCCCC2)c1,inactive,–
Cc1oc(-c2ccc(Cl)cc2)cc1C(=O)N1CCC1(C)C(=O)O (stereo not drawn),"inconclusive [activator, full curve, poor fit]",–
NC(=S)N/N=C/c1ccc(C(F)(F)F)cc1,"inconclusive [activator, single point]",–
Cc1nn2c3ccccc3nc2c2ccccc12,active: 39.8 µM,–
COc1cccc(N2CCN(C(=S)NCc3ccco3)CC2)c1,"inconclusive [activator, single point]",–
COc1cc2ccccc2cc1C(=O)Nc1ccccc1N1CCN(S(C)(=O)=O)CC1,"inconclusive [activator, partial curve, poor fit]",–
O=C(O)c1cccc(C(=O)O)c1,"inconclusive [activator, single point]",–
COCCCNC(NC(=O)c1ccc(C)cc1)C(Cl)(Cl)Cl (stereo not drawn),"inconclusive [activator, single point]",–
COc1ccc(Nc2ccc(C(F)(F)F)cc2[N+](=O)[O-])cn1,"inconclusive [activator, partial curve]",–
CCCCCC(O)c1cccc(OCc2ccc3ccccc3n2)c1 (stereo not drawn),active: 12.6 µM,–
CCNC(=S)Nc1cc(Cl)ccc1Oc1ccccc1,"inconclusive [activator, partial curve]",–
